Results taken from patent US20220162323A1.

B1: mAb1-tubulysin 1ALP (antibody, human IgG4 S228P, kappa)
heavy: QVQLVESGGGVVQPGRSLRLSCAASGFTFSSYGMHWVRQAPGKGLEWVAVIWYDGSNKYYADSVKGRFTISRDNSKNTLYLQMNSLRAEDTAVYYCAREESSASGVDYWGQGTLVTVSSASTKGPSVFPLAPCSRSTSESTAALGCLVKDYFPEPVTVSWNSGALTSGVHTFPAVLQSSGLYSLSSVVTVPSSSLGTKTYTCNVDHKPSNTKVDKRV[human IgG4 Fc with S228P (EU numbers) omitted]
light: EIVLTQSPGTLSLSPGERATLSCRASQSVSTRYLAWYQQKRGQAPRLLIYGASSRATGIPDRFSGSGSGTDFTLTISRLEPEDFAVYYCQEYGSSSITFGQGTRLEIKRTVAAPSVFIFPPSDEQLKSGTASVVCLLNNFYPREAKVQWKVDNALQSGNSQESVTEQDSKDSTYSLSSTLTLSKADYEKHKVYACEVTHQGLSSPVTKSFNRGEC
modifications: here or on the partner: deglycosylated; Q295 carries azido-PEG3-amine clicked to Tubulysin 1A-LP; DAR 2.1 per antibody
B2: mAb1-maytansinoid 1ALP (antibody)
heavy: QVQLVESGGGVVQPGRSLRLSCAASGFTFSSYGMHWVRQAPGKGLEWVAVIWYDGSNKYYADSVKGRFTISRDNSKNTLYLQMNSLRAEDTAVYYCAREESSASGVDYWGQGTLVTVSSASTKGPSVFPLAPCSRSTSESTAALGCLVKDYFPEPVTVSWNSGALTSGVHTFPAVLQSSGLYSLSSVVTVPSSSLGTKTYTCNVDHKPSNTKVDKRV[human IgG4 Fc with S228P (EU numbers) omitted]
light: EIVLTQSPGTLSLSPGERATLSCRASQSVSTRYLAWYQQKRGQAPRLLIYGASSRATGIPDRFSGSGSGTDFTLTISRLEPEDFAVYYCQEYGSSSITFGQGTRLEIKRTVAAPSVFIFPPSDEQLKSGTASVVCLLNNFYPREAKVQWKVDNALQSGNSQESVTEQDSKDSTYSLSSTLTLSKADYEKHKVYACEVTHQGLSSPVTKSFNRGEC
modifications: here or on the partner: maytansinoid 1ALP (mc-VC-PAB-NMe-C3-May) linker-payload conjugated; residues not stated in Example 5; DAR 2.5 per antibody

Target: FGFR2c on NCI-H716 cells (human), P21802
Sequence (P21802 22-821): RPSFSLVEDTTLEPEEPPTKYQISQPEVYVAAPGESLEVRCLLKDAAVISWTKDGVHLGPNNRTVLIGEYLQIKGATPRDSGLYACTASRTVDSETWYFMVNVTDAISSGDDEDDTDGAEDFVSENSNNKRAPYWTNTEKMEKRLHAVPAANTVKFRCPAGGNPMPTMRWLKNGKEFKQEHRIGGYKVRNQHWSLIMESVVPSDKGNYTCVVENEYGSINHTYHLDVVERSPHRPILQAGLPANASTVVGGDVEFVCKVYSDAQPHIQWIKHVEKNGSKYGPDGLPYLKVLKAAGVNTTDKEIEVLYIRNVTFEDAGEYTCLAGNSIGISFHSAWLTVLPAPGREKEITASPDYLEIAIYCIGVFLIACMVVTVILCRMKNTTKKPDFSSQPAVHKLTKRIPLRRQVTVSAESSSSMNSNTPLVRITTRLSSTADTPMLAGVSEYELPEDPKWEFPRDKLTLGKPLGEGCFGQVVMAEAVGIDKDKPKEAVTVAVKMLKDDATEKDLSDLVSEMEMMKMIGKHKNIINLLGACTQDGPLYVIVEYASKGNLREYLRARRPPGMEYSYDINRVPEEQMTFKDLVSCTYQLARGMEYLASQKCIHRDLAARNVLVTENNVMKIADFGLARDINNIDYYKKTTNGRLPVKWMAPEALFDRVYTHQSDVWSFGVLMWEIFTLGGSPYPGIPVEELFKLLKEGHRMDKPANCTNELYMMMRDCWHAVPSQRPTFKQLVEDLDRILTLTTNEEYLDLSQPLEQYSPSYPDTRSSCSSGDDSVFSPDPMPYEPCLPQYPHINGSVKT
Assay: cell-based or functional assay

Row | Binder | IC50 (M), CellTiter-Glo cytotoxicity, NCI-H716 cells, 6 days | Max % Kill, NCI-H716 cells
1 | B1 | > 2e-08 M | 19.3%
2 | B2 | > 2e-08 M | 0.5%
